Measurements taken from PubChem BioAssay AID924 (National Center for Advancing Translational Sciences (NCATS), 2007).
Among all 130,000 compounds or so, about 1,200 (0.92%) were called active. Inconclusive means that the source gave no clear call. Such entries were picked first, then a sample of the others. Calls come from the whole dose curve; as a rule, active = well fitted cell-killing curve with a large enough effect; inconclusive = small, poorly fitted or top-dose-only effect; inactive = no such curve, though single readings can be large or run the other way. Potencies beside an inconclusive call are fits to weak or partial responses and may not hold up.

Assay: qHTS Screen for Compounds that Selectively Target Cancer Cells with p53 Mutations: Cytotoxicity of p53ts Cells at the Permissive Temperature; note: nearly all actives have a fitted effect of over 55% in size;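 for activity change, negative = cytotoxicity: 0% = DMSO and -100% = full killing by reference compound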
Conditions: H1299-p53A138V at 32C, ATP luminescence viability, 24 h; activity change, negative = cytotoxicity: at 46.1 µM (top of the series)
From the text: NIH Chemical Genomics Center [NCGC] NIH Molecular Libraries Screening Centers Network [MLSCN] MLSCN Grant: 1 X01 MH079844-01 Assay Submitter (PI): Dr. SUN, YI, University of Michigan NCGC Assay Overview: Synthetic Lethal Screen for Compounds to Kill Cancer Cells with p53 Mutation. Tumor suppressor gene p53 serves as a major cellular barrier against tumorigenesis. […] The goal of this screening is to identify small molecule probes that selectively kill cancer cells with mutations in p53. This screening was carried out using two lines of H1299 lung cancer cells. The H1299-p53 A138V line express a temperature sensitive p53 mutant (p53ts) in which the mutant p53 protein (A138V) is in the mutant confirmation when grown at 39C (the nonpermissive temperature) and in the wild type conformation when grown at 32C (the permissive temperature). A H1299-neo line (p53 null) grown at both 39C and 32C were used as counter-screens to filter out false positive associated with temperature shifting. The small molecular compounds that selectively target mutant p53-containing cancer cells were selected as candidate probes for further study. A cytotoxicity assay based on the measurement of ATP contents in cells was used in this screen. Concentration-responses of all the compounds in the library collection were determined in qHTS using the cell lines and temperature conditions as above.
NCGC Assay Protocol Summary: Both the H1299-p53A138V and H1299-neo cell lines were provided by Dr.Yi Sun, a PI at the University Michigan. The cells were maintained and cultured at 37C. The resuspended frozen cells were used to plate the cells in the 1536-well assay plates at a density of 600 cells per well in 5 ul medium. The assay plates with the cells were incubated at 37C for 16 to 30 hours before the experiments. The library compounds in DMSO solution were added to the cells in assay plates and incubated 24 hours at 39C (for mutant p53 conformation) or 32C (for normal p53 conformation as control). An ATP_lite assay kit (PerkinElmer) was used to determine the cell viability. Tomaxifen (100uM) was used as the positive control for cell killing. Data were normalized to the controls for basal activity (DMSO only) and 100% killing (100uM tamoxifen). AC50 values were determined from concentration-response data modeled with the standard Hill equation. P53 assay protocol: 1. Reagent; 5 uL H1299-p53A138V or H1299-neo cell cells/well 2. Time; overnight; 37C incubation 3. Compounds; 23 nL; 5.9 nM to 46 uM 4. Controls; 23 nL; Tamoxifen 100 uM 5. Time; 24 hr; 37C incubation 6. Reagent; 3 uL; ATP_Lite reagent 7. Time; 20 min; Room Temperature 8. Detection; Luminescence; Viewlux plate reader Keywords: p53, synthetic lethal, cancer, cell viability, cytotoxicity, H1299 cell line, luminescence, MLSMR, MLSCN, NIH Roadmap, qHTS, NCGC
Potency is the fitted concentration of half-maximal effect; tags give direction and shape of the fitted curve.

Compound | Potency | activity change, negative = cytotoxicity
Nc1ccc2nc(-c3cccs3)[nH]c2c1 | inconclusive: 11.2 µM [cytotoxic, single point] | 
O=C(Nc1cccnc1)c1cc(-c2ccc(Br)cc2)on1 | inconclusive: 12.6 µM [cytotoxic, partial curve] | 
O=C(Nc1ccc2c(c1)oc1ccccc12)c1ccc(Br)o1 | inconclusive: 15.8 µM [cytotoxic, single point] | 
COc1ccc(CNC(=O)C(c2cccs2)N(C(=O)c2csnn2)C2CC2)cc1 (stereo unspecified) | inconclusive: 31.6 µM [cytotoxic, single point] | 
COc1ccc(C(=O)NC(=O)Nc2cc(C)ccn2)cc1 | active: 1.26 µM | 
O=c1c(-c2ccccc2)n[nH]c2ccccc12 | inconclusive: 15.8 µM [cytotoxic, partial curve] | 
Cc1ccc(NCc2nc3ccccc3n2C)cc1 | inconclusive: 12.6 µM [cytotoxic, partial curve] | 
COc1ccc(OC)c(CNC(=O)c2ccc(Sc3ccc(C)cc3)c(N)c2)c1 | inconclusive: 22.4 µM [cytotoxic, single point] | 
CC1CCCc2sc3nc(SCC(=O)c4ccc(Br)cc4)nc(N)c3c21 (stereo unspecified) |  | inactive: 12.4%
N#Cc1cc2ccccc2nc1SCc1ccccn1 | inconclusive: 20 µM [cytotoxic, single point] | 
CCSc1nc2c([nH]c3ccccc32)c(=O)n1CC |  | inactive: 12.9%
CC(=O)c1cccc(NC(=O)c2nc3ccccc3n(C)c2=O)c1 | active: 2.24 µM | 
COc1ccccc1NC(=O)c1cc2ccc3cccnc3c2[nH]1 | active: 10 µM | 
COc1ccc2c(Sc3ccccc3)c(C(=O)NCCc3ccc(Cl)cc3)[nH]c2c1 | inconclusive: 12.6 µM [cytotoxic, partial curve] | 
CCOC(=O)c1c(C)[nH]c(C(=O)N/N=C/c2cccc(OC)c2)c1C | inconclusive: 0.02 µM [cytotoxic, full curve, poor fit] | 
CCOC(=O)N1CCN(C(=O)c2cc(-c3ccc(OCC)cc3)nc3ccccc23)CC1 | active: 5.01 µM | 
CCOc1ccc2nc(NCCNC(=O)Nc3cccc(C)c3)c(C#N)cc2c1 | inconclusive: 31.6 µM [cytotoxic, single point] | 
Cc1ccc(OCCSc2nc3ccc(NC(=O)c4cccs4)cc3s2)cc1 |  | inactive: -9.9%
COc1cc2c(cc1OC)-c1cc(N3CCCCCC3)nc(=O)n1CC2 |  | inactive: 2.35%
CN[C@@H](CC(C)C)C(=O)N[C@@H]1C(=O)N[C@H](CC(N)=O)C(=O)N[C@H]2C(=O)N[C@H]3C(=O)N[C@H](C(=O)N[C@H](C(=O)O)c4cc(O)cc(O)c4-c4cc3ccc4O)[C@H](O)c3ccc(c(Cl)c3)Oc3cc2cc(c3O[C@@H]2O[C@@H](CO)[C@@H](O)[C@@H](O)[C@H]2O[C@H]2C[C@](C)(N)[C@H](O)[C@H](C)O2)Oc2ccc(cc2Cl)[C@@H]1O |  | inactive: 26.4%
Cc1ccc(C(=O)Nc2nc3ccc(S(C)(=O)=O)cc3s2)o1 | active: 11.2 µM | 
Cc1nn(C(C)(C)C)c(OC(=O)c2ccc3c(c2)OCO3)c1S(=O)(=O)c1ccccc1 |  | inactive: -19.3%
COc1ccccc1OCC(=O)N(Cc1ccco1)Cc1ccccc1F |  | inactive: 3.84%

Compound | Potency | activity change, negative = cytotoxicity
CC(CNC(=O)c1ccc2c(c1)nc1n2CCCCC1)c1ccccc1 (stereo unspecified) | inconclusive: 12.6 µM [cytotoxic, partial curve] | 
COC(=O)c1nn(-c2ccc(-c3ccccc3)cc2)cc1O | active: 7.94 µM | 
COc1ccc(OC)c(-c2cc(C(=O)Nc3cnn(Cc4ccc(Cl)cc4Cl)c3)no2)c1 | inconclusive: 7.94 µM [cytotoxic, partial curve] | 
COc1cccc(/C=N/NC(=O)c2cc(-c3ccc(C)cc3)n[nH]2)c1O | inconclusive: 12.6 µM [cytotoxic, partial curve] | 
CCC(=O)Nc1ccc(NC(=O)c2cccc(OC)c2)nc1 | inconclusive: 17.8 µM [cytotoxic, partial curve] | 
COc1ccc2nc(NC(=O)c3cc(=O)c4ccccc4o3)sc2c1 | inconclusive: 2.51 µM [cytotoxic, full curve] | 
CCCCNC(=O)c1c(C)oc2ncn(CC(C)C)c(=O)c12 |  | inactive: 8.24%
COc1cc(C(=O)Nc2cc(-c3nc4cc(C)ccc4o3)ccc2C)cc(OC)c1OC | active: 12.6 µM | 
CCN(c1ccccc1)S(=O)(=O)c1ccc(C(=O)Nc2nnc(COC)o2)cc1 | inconclusive: 15.8 µM [cytotoxic, single point] | 
O=C(NC1=NCCS1)Nc1ccccc1 | active: 10 µM | 
CCOc1ccc(N2C(=O)CC(N)C2=O)cc1 (stereo unspecified) | inconclusive: 35.5 µM [cytotoxic, single point] | 
COc1cccc(Nc2ncc3nc(-c4ccc(Cl)cc4)c(=O)n(CCC#N)c3n2)c1 |  | inactive: -7.22%
Cc1ccc(NC(=O)Cn2nnc3sc(-c4ccccc4)cc3c2=O)cc1Cl |  | inactive: 7.52%
Cc1ccc(-c2nc3nc4ccccc4nc3n2Cc2ccco2)cc1 | active: 12.6 µM | 
Cc1ccc(Nc2nnc(-c3ccc(C)c(S(=O)(=O)N4CCOCC4)c3)c3ccccc23)c(C)c1 |  | inactive: 1.08%
CCOc1ccc(C(=O)c2cn(Cc3ccc(Cl)cc3)c3cc(OC)c(OC)cc3c2=O)cc1 |  | inactive: 23.1%
CCN(CC)c1ccc2cc(NC(=O)CCC(=O)O)c(=O)oc2c1 | inconclusive: 12.6 µM [cytotoxic, partial curve] | 
Cc1c(OCc2ccc(C(=O)O)o2)ccc2c3c(c(=O)oc12)CCC3 | inconclusive: 15.8 µM [cytotoxic, single point] | 
COc1ccccc1CNS(=O)(=O)c1ccc2c(c1)NC(=O)C(C)C(=O)N2 (stereo unspecified) |  | inactive: 6.63%
Cc1ccccc1NS(=O)(=O)c1ccc2[nH]cc(C(=O)N(C)Cc3ccco3)c(=O)c2c1 | inconclusive: 31.6 µM [cytotoxic, single point] | 
Cc1nn(CC(=O)Nc2nnc(CC(=O)N3CCCC3)s2)c(=O)c2ccccc12 |  | inactive: -0.49%
CC(=O)c1ccc(NC(=O)CN2C(=O)CCc3ccccc32)cc1 | inconclusive: 31.6 µM [cytotoxic, single point] | 
O=C(NCc1cccs1)c1ccc(Cn2c(SCc3ccccc3)nc3cccnc32)cc1 | inconclusive: 12.6 µM [cytotoxic, partial curve] | 
